In the supplement of paper PMC6609913 one finds normalised cell viability data, which are given here for 28 compounds.

Each structure is given as a SMILES string. Counter-ions that a name gives are not always drawn. ± gives the standard deviation of the averaged measurements. The full ranking holds about 1,300 compounds; the median of “normalised cell viability” is about 1, and the lowest 2% start at about 0.15. Some of the results follow.

The test system of the experiment is V-C8 + BRCA2 (BRCA2-proficient hamster cells). The experiment can be described thus: normalised cell viability (fraction of plate median); higher = more viable cells (less toxic). As to conditions: 5 µM. A digest of the protocol:
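Library drugs, held as 10 mM stocks in DMSO, were diluted to 5 μM in 100 μl medium and added to 96-well plates of V-C8 hamster cells, either lacking BRCA2 or with BRCA2 restored, 24 h after seeding. Plates ran for 3 days (screen 1) or 6 days (screen 2), alongside solvent-only wells. Viability came from a resazurin readout, median-plate normalised, as the mean of triplicate wells.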

As to `COc1ccccc1Oc1c(NS(=O)(=O)c2ccc(C(C)(C)C)cc2)nc(-c2ncccn2)nc1OCCO` [Bosentan], the normalised cell viability is, setting by setting: (treatment time: 3 days) 1.03 ± 0.098; (treatment time: 6 days) 1.06 ± 0.023.
In the same order, the values of `Nc1ccccc1S(N)(=O)=O` [2-Aminobenzenesulfonamide] are 0.993 ± 0.013 and 1.03 ± 0.019.
In the same order, the values of `CN(C)CCC=C1c2ccccc2COc2ccccc21` [Doxepin hydrochloride] are 0.9783 ± 0.0094 and 1.06 ± 0.05.
As to `CC(C)[N+](C)(CCOC(=O)C1c2ccccc2Oc2ccccc21)C(C)C` [Propantheline bromide], the normalised cell viability (treatment time: 3 days) was determined as 1.04 ± 0.011 and the normalised cell viability (treatment time: 6 days) worked out at 0.94 ± 0.039.
For `O=C(N[C@H](CO)[C@H](O)c1ccc([N+](=O)[O-])cc1)C(Cl)Cl` [Chloramphenicol] the same measures were 1 ± 0.018 and 0.883 ± 0.074.
`CCC[C@@H]1C[C@@H](C(=O)N[C@@H]([C@H]2O[C@H](SC)[C@H](O)[C@@H](O)[C@H]2O)[C@H](C)Cl)N(C)C1` [Clindamycin hydrochloride]: the normalised cell viability (treatment time: 3 days) was found to be 1.22 ± 0.034 and the normalised cell viability (treatment time: 6 days) was 1.1 ± 0.093.
In the same order, the values of `C=C1/C(=C\C=C2/CCC[C@]3(C)[C@@H]([C@H](C)CCCC(C)C)CC[C@@H]23)C[C@@H](O)C[C@@H]1O` [Alfacalcidol] are 0.751 ± 0.062 and 0.719 ± 0.094.
As for `Cc1ccc2c(c1)c1c3n2CCNC3CCC1` (stereo unspecified) [Pirlindole mesylate], the normalised cell viability was found to be 0.976 ± 0.023 (treatment time: 3 days) and 0.9961 ± 0.0071 (treatment time: 6 days).
In the same order, the values of `CCN(CC)CCNC(=O)c1cc(Cl)c(N)cc1OC` [Metoclopramide monohydrochloride] are 0.975 ± 0.033 and 1.03 ± 0.0081.
For `CN(C)C/C=C(/c1ccc(Br)cc1)c1cccnc1` [Zimelidine dihydrochloride monohydrate], the normalised cell viability by setting is: (treatment time: 3 days) 1.08 ± 0.044; (treatment time: 6 days) 1.08 ± 0.056.
In the same order, the values of `CC(C)(CO)C(O)C(=O)NCCCO` (stereo unspecified) [Panthenol (D)] are 1.02 ± 0.013 and 1.01 ± 0.0086.
For `CCOc1ccc2ccccc2c1C(=O)N[C@@H]1C(=O)N2[C@@H]1SC(C)(C)[C@@H]2C(=O)O` [Nafcillin sodium salt monohydrate] the same measures were 1.03 ± 0.013 and 1.03 ± 0.057.
For `Cn1cnc2c1c(=O)[nH]c(=O)n2C` [Theobromine] the same measures were 0.856 ± 0.034 and 0.993 ± 0.02.
As for `C1CCC(C(CC2CCCCN2)C2CCCCC2)CC1` (stereo unspecified) [Perhexiline maleate], the normalised cell viability amounted to 0.135 ± 0.0029 (treatment time: 3 days) and 0.125 ± 0.015 (treatment time: 6 days).
For `CC(C)NCC(O)COc1ccc(CCOCC2CC2)cc1` (stereo unspecified) [Betaxolol hydrochloride] the same measures were 0.22 ± 0.0096 and 0.275 ± 0.015.
For `CC(=O)[C@@]1(O)CC[C@H]2[C@@H]3C[C@H](C)C4=CC(=O)C=C[C@]4(C)[C@@]3(F)[C@@H](O)C[C@@]21C` [Fluorometholone] the same measures were 0.791 ± 0.042 and 0.942 ± 0.065.
In the same order, the values of `CCc1nc(N)nc(N)c1-c1ccc(Cl)cc1` [Pyrimethamine] are 0.358 ± 0.011 and 0.374 ± 0.036.
In the case of `COc1cc(C(=O)NCc2ccc(OCCN(C)C)cc2)cc(OC)c1OC` [Trimethobenzamide hydrochloride], the normalised cell viability reads like this: (treatment time: 3 days) 0.966 ± 0.061; (treatment time: 6 days) 0.97 ± 0.044.
For `C#CCN[C@@H]1CCc2ccccc21` [Rasagiline] the same measures were 1.01 ± 0.017 and 1.03 ± 0.065.
For `COc1ccc(-c2cc(=S)ss2)cc1` [Anethole-trithione] the same measures were 0.941 ± 0.12 and 0.935 ± 0.05.
On to `O=C(O)c1cn(C2CC2)c2cc(N3CCNCC3)c(F)cc2c1=O` [Ciprofloxacin hydrochloride hydrate], for which the normalised cell viability runs as follows: (treatment time: 3 days) 1.15 ± 0.079; (treatment time: 6 days) 1.04 ± 0.035.
In the same order, the values of `Cc1ccc(NC(=O)c2ccc(CN3CCN(C)CC3)cc2)cc1Nc1nccc(-c2cccnc2)n1` [Imatinib] are 1.04 ± 0.033 and 1.03 ± 0.13.
For the compound `CCOC(=O)O[C@]1(C(=O)OCCl)CC[C@H]2[C@@H]3CCC4=CC(=O)C=C[C@]4(C)[C@H]3[C@@H](O)C[C@@]21C` [Loteprednol etabonate], the normalised cell viability is, setting by setting: (treatment time: 3 days) 0.996 ± 0.016; (treatment time: 6 days) 0.944 ± 0.073.
In the same order, the values of `Clc1ccc(C(Cn2ccnc2)OCc2ccsc2Cl)c(Cl)c1` (stereo unspecified) [Tioconazole] are 1.11 ± 0.075 and 0.998 ± 0.04.
For `CCCC1C(=O)N2C(N(C)C)=Nc3ccc(C)cc3N2C1=O` (stereo unspecified) [Azapropazone] the same measures were 1.08 ± 0.032 and 1.02 ± 0.032.
In the same order, the values of `c1cnc(N2CCN(Cc3ccc4c(c3)OCO4)CC2)nc1` [Piribedil hydrochloride] are 0.9831 ± 0.0057 and 0.854 ± 0.18.
Consider `C[C@](N)(Cc1ccc(O)c(O)c1)C(=O)O` [Methyldopa (L,-)], for which the normalised cell viability by setting is: (treatment time: 3 days) 0.895 ± 0.0099; (treatment time: 6 days) 1.08 ± 0.093.
For `C[C@H]1c2cccc(O)c2C(=O)C2=C(O)[C@]3(O)C(=O)C(C(N)=O)=C(O)[C@@H](N(C)C)[C@@H]3[C@@H](O)[C@@H]21` [Doxycycline hydrochloride] the same measures were 0.947 ± 0.025 and 0.982 ± 0.033.
